Experimental data from article PMC6919601, “Identification of Plasmodium dipeptidyl aminopeptidase allosteric inhibitors by high throughput screening” (PLoS ONE, 2019).
Values joined by “and” are separate entries in the source; they are usually repeats but may differ in a detail not shown here. Equal entries are not always repeated. The campaign covered roughly 110,000 compounds. About 230 (0.21%) showed an effect of 50% or more. The list shows a part of the results.

target: DPAP1 (Plasmodium falciparum, UniProt Q8IIJ9); test: primary screen, percent inhibition; read by cleavage of a fluorogenic dipeptide substrate; higher = more effect of the substance; design: species or system P. falciparum D10 trophozoite lysates; single well
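Further: 30 min substrate incubation versus DMSO and 10 µM JCP410 controls.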

DPAP1, sequence (Q8IIJ9 whole entry, looked up): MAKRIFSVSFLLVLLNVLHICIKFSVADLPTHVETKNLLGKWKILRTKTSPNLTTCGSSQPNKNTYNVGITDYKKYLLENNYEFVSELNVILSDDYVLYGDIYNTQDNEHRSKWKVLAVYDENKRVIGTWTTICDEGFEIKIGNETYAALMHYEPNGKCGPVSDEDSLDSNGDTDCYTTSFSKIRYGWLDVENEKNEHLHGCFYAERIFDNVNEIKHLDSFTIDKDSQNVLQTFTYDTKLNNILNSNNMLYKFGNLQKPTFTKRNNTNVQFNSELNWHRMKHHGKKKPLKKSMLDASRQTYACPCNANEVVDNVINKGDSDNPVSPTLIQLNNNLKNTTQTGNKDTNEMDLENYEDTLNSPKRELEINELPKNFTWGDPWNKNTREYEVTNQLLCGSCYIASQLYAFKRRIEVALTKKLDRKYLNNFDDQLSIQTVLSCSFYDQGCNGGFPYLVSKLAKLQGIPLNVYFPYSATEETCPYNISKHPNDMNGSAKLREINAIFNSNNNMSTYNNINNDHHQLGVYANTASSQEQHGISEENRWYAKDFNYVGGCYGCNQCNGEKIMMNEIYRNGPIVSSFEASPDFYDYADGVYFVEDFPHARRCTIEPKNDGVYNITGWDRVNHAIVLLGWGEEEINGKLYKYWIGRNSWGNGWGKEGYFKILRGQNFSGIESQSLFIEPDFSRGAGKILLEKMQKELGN

SMILES	% Inhibition @ 10 uM
CC1CCC2C(=O)N(c3ccc(O)cc3)C(=O)C2C1 (centres unmarked)	-2.53%
CC(C)C[C@H](NC(=O)c1ccc(N2CCN(C)CC2)nc1)C(=O)NCC#N	-2.35%
COc1ccccc1-c1nc2s/c(=C\c3cccs3)c(=O)n2n1	2.24%
O=C(CCn1cccn1)NCc1ccc2c(c1)OCO2	-1.56%
COCCNC(=O)Cn1ncc2c3ccccc3n(Cc3ccccc3)c2c1=O	3.4%
CCOC(=O)N1CCC2(CC1)OC(=O)C(C)=C2C(=O)NCc1ccccc1OCC	-7.94%
CCc1nc(C)ccc1OCC(=O)NCCCN(C)C	4.01%
COc1ccc(Cn2nnc(C(=O)NCCc3ccccc3)c2N)cc1Br	-4.1%
CC(=O)Nc1ccc(S(=O)(=O)Nc2ccccc2C(=O)NCC(C)C)cc1	0.726% and -7.32%
c1ccc(CN2CCN(c3nn4nnnc4c4ccccc34)CC2)cc1	-3.75%
Cc1nnc2sc(NC(=O)c3cccc(F)c3)nn12	-4.69%
CCOc1cccc(C=O)c1OCc1cc(=O)n2ccccc2n1	-9.35%
CN1CCC(N(C)C(=S)NCCc2ccccc2)CC1	-2.5%
Cc1ccc(S(=O)(=O)/C(C#N)=C/c2c(Oc3ccccc3)nc3ccccn3c2=O)cc1	7.65%
CC(C)(C)C1CCc2c(sc(NC(=O)c3ccccc3F)c2C(=O)NCCO)C1 (centres unmarked)	2.03%
O=C(NCCc1ccccc1)c1ccccc1NC(=O)C1CCCCC1C(=O)O (centres unmarked)	-0.519%
CCc1ccc2nc3nc(C)cc(C)c3c(N)c2c1	-5.27%
CN1CCN(c2nc(-c3ccc(C(=O)NC(Cc4cc(Cl)cc(Cl)c4)C(=O)NCC#N)cc3)cs2)CC1 (centres unmarked)	17%
COc1ccc(-c2csc(/C(C#N)=C/c3cccs3)n2)cc1	3.74%
O=C(NCc1ccc(F)cc1)c1cccnc1C(=O)O	2.34%
COc1cccc(CCN2N=C(C)CC2=O)c1OC	-0.999%
O=C1CNC(=O)/C1=C\Nc1ccc(C2CCCCC2)cc1	-1.06%
Cc1c(C(=O)NCc2cccc(C(F)(F)F)c2)cnn1C	-8.75%
COc1cccc2c1c(=O)c1ccccc1n2C	2.75%
CCn1c(NCc2ccc(O)cc2)nc2ccccc21	1.64%
Cc1ccc(-n2ncc(C(=O)N3CCCC3)c2C2CCN(C(=O)OC(C)(C)C)CC2)c(C)c1	0.0065%

SMILES	% Inhibition @ 10 uM
CC(=O)Nc1ccc2c(c1)C(=O)Cc1ccccc1S2	4.27%
Fc1ccccc1N1CCN(Cc2c(Cl)cccc2Cl)CC1	4.28%
COc1ccc(C(=O)C2=C(O)C(=O)N(CCCN3CCOCC3)C2c2cccnc2)cc1C (centres unmarked)	1.67%
CC1CCN(CCCNC(=O)c2cc3ccc4cccnc4c3[nH]2)CC1	-5.99%
CCOC(=O)C1=C(C)N(C)C(=O)NC1c1ccc(Cl)c(Cl)c1 (centres unmarked)	-1.59%
CCOc1cc(C2C(C#N)=C(N)Oc3[nH]nc(C)c32)c(Br)cc1OCc1ccccc1 (centres unmarked)	5.48%
Nc1cc(C(F)(F)F)ccc1C(=O)O	-2.55%
CCOC(=O)C1=C(CN2CCN(C(C)CC)CC2)NC(=O)NC1c1ccc(OC)cc1 (centres unmarked)	-1.31%
Cc1ccccc1CSc1nc(=O)c2c(n1C)NC(=O)CC2c1cccc(O)c1 (centres unmarked)	18.5%
COc1ccc(CCNc2oc(COc3ccccc3C)nc2C#N)cc1	-7.55%
N#CC1=C(N)Oc2c(c(=O)oc3ccccc23)C1c1cccs1 (centres unmarked)	-1.98%
CCc1ccccc1NC1=C(Cl)C(=O)N(c2ccccc2)C1=O	-1.07%
COc1cc(S(=O)(=O)N2CCN(Cc3ccc(Cl)cc3)CC2)ccc1-n1cnnn1	-6.56%
O/N=C1\CCCc2nnc3c(c21)CCCC3	-3.82%
CC(C)CC(=O)N1c2ccccc2N=C2CC(C)(C)CC(O)=C2C1c1cccs1 (centres unmarked)	-1.08%
CCOc1ccc(C(CC(=O)O)NC(=O)c2ccc(OC)c(Br)c2)cc1OC (centres unmarked)	-4.59%
CC(C)OCCCNC(=O)c1cc(-c2ccc(Br)cc2)[nH]n1	6.89%
CCn1ccnc1C(O)(c1ccccc1)c1ccc(C)cc1 (centres unmarked)	4.67%
OC(COC1C2CC3CC(C2)CC1C3)CN1CCCCC1 (centres unmarked)	-0.0369%
Cc1ccc(-c2nnc3n(CCc4ccccc4)c(=O)c4ccccc4n23)s1	-5.37%
O=C(COc1cc(Cl)c(Cl)cc1Cl)Nc1ccccc1	0.528%
CS(=O)(=O)N(CC(=O)Nc1cc(Cl)c(Cl)cc1Cl)Cc1ccccc1	-5.54%
CCCOc1ccc2c(=O)c(-c3ccccc3)coc2c1C	1.02%
Clc1ccc2c(c1)c1c3c(nccn32)CCC1	-0.197%
NC(=O)c1nn2c(C(F)(F)F)cc(-c3ccccc3)nc2c1Cl	6.53%
CC(=O)c1ccc(NC(=O)C(C)Oc2ccccc2C)cc1 (centres unmarked)	-5.92%

SMILES	% Inhibition @ 10 uM
Cn1c(=O)c2c(-c3ccc(Cl)cc3)n(CC3CCCO3)cc2n(C)c1=O (centres unmarked)	0.366%
CC(=O)c1sc(N2C(=O)C(O)=C(C(=O)c3cc4ccccc4o3)C2c2cccs2)nc1C (centres unmarked)	6.42%
CC(C)C[C@H](NC(=O)OCc1ccccc1)C(=O)NC(C#N)c1ccsc1 (some centres unmarked)	7.39%
CCCCOC(=O)Nc1nc2ccc(S(C)(=O)=O)cc2s1	-1.47%
Clc1ccc2c[nH]nc2c1	-7.22%
COCCNC(=O)CS(=O)Cc1nc(-c2ccc(Cl)cc2)oc1C (centres unmarked)	-1.05%
CC1(C)CC(=O)CC(c2ccccc2)(c2ccccc2)N1	-3.74%
Cc1ccc(OCC(O)CNS(=O)(=O)c2ccccc2C(=O)N2CCCCC2)cc1 (centres unmarked)	0.222%
N#CC1=C(N)Oc2[nH]nc(-c3ccccc3Cl)c2C1c1ccc2c(c1)OCO2 (centres unmarked)	-0.68%
CC(C)Cn1cc(NC(=O)N(Cc2ccco2)C2CCN(C)CC2)c2ccccc2c1=O	-4.78%
O=C(Nc1cccc(C(=O)Nc2cccc(Cl)c2)c1)NC1(c2ccccc2)CC1	3.53%
CCN(CC)CCOC(=O)COc1ccc(Cl)cc1	-2.72%
CCCN(CCC)CCCNC(=O)c1cc(O)nc2ccc(S(=O)(=O)N3CCC(C)CC3)cc12	1.16%
COc1cc(Br)cc2c1OC1(C=C2)c2ccccc2-c2ccccc2N1C (centres unmarked)	-7.87%
O=S(=O)(c1cccc2nsnc12)N1CCN(C23CC4CC(CC(C4)C2)C3)CC1	-3.41%
Cc1ccc2c(Cl)c(C(=O)NCC(c3ccco3)N(C)C)sc2c1 (centres unmarked)	9.21%
Cc1cc(C)c2c(n1)SCC(=O)N2CC(=O)NCc1ccc2c(c1)OCO2	-0.637%
CN1CCN(CC(=O)N2c3ccccc3Sc3ccc(Cl)cc32)CC1	-9.52%
O=C(O)CCC(C(=O)O)N1C(=O)c2cc(Cl)c(Cl)cc2C1=O (centres unmarked)	-2.87%
COC(=O)c1c(-c2ccc(C)c(C)c2)csc1NC(=O)C1CC=CCC1C(=O)O (centres unmarked)	-1.1%
CC1=Nc2c(ccc3cccnc23)C1(C)C	3.16%
CC(=O)N1c2ccccc2C(C)=CC1(C)C	-0.771%
Clc1ccc(N2CC(c3ccccc3)C(c3cccs3)=N2)cc1 (centres unmarked)	2.41%
c1ccc(CCN2CCC(N3CCOCC3)CC2)cc1	-5.2%
COc1ccc(CN2C(=O)c3oc4ccc(C)cc4c(=O)c3C2c2ccc(O)c(OC)c2)cc1 (centres unmarked)	0.415%
Cc1c(C(=O)N(C)Cc2ccccc2)oc2ccc(S(=O)(=O)N3CC(C)CC(C)C3)cc12 (centres unmarked)	-1.73%

SMILES	% Inhibition @ 10 uM
CCc1ccccc1NC(=O)C(c1ccccc1)c1ccccc1	0.317%
COC(=O)c1c(SC)nc2ccccc2c1OCc1ccccc1F	-1.2%
CCN(C(=O)Cc1ccc(OC)cc1)c1nc(-c2ccccc2)cs1	0.675%
CCN(CC)c1ncnc2c1ncn2Cc1c(Cl)cccc1Cl	3.6%
O=c1c2c(nc(SCc3ccccc3)n1Cc1ccccc1)-c1ccccc1CC21CCCC1	0.67%
CC(C)NCC(O)COCc1ccc(Cl)cc1 (centres unmarked)	2.58%
CCCCCC(=O)Nc1sc2c(c1C(N)=O)CCCCCC2	-5%
COc1ccc(NC(=O)CC(c2ccccc2)c2ccccc2O)cc1 (centres unmarked)	1.02%
Cc1cccc(Cn2c(SCc3ccc(C(=O)NCc4ccccn4)cc3)nc3ccncc32)c1	-2.37%
CCSC1=C(C#N)C2(CCCCC2)C(C#N)C(=O)N1 (centres unmarked)	0.937%
CC(C)C[C@H](NC(=O)c1ccoc1)C(=O)NCC#N	-3.04%
O=C(/C=C/c1cccs1)c1ccncc1	-4.94%
O=C1C2C3C=CC(C3)C2C(=O)N1c1ccc(Cl)c(F)c1 (centres unmarked)	-5.34%
COc1ccc(C(=O)Nc2ccc(S(=O)(=O)Nc3nccnc3OC)cc2)cc1	-1.76%
COc1ccc(N2C(=O)c3ccc(C)cc3C2=O)cc1OC	5.04%
O=C1C(Cl)=C(N2CCN(S(=O)(=O)c3ccc(Cl)c(Cl)c3)CC2)C(=O)c2ccccc21	0.279%
CC(C)(O)C#C/C=C(\Sc1ccccc1)C(C)(C)O	0.826%
Fc1cccc(Cl)c1Cn1cnc2ccccc21	-4.6%
O=C(c1cc2ncc(Br)cn2n1)N1CCOCC1	-4.15%
Cc1c(-c2ccc(F)cc2)[n+]([O-])c2c([n+]1[O-])CCCC2	-5.28%
CC1CCc2nc(SCC(=O)Nc3ccccc3)c(C#N)cc2C1 (centres unmarked)	-2.68%
CCO/C(O)=C(\C#N)c1cc(C)nc(-c2ccccc2O)n1	4.03%
CCOc1ccc(CCNC(=O)Nc2cn(CC(C)C)c(=O)c3ccccc23)cc1	-6.33%
